In all, about 310,000 compounds went through this assay and about 2,200 (0.71%) showed an effect of 50% or more. Effects have a minus sign here. Some of the results follow.
target: human ether-à-go-go-related gene (hERG) potassium channel (human, UniProt Q12809); assay: primary screen, population patch clamp on CHO cells stably expressing hERG
Sequence (Q12809 whole entry, looked up): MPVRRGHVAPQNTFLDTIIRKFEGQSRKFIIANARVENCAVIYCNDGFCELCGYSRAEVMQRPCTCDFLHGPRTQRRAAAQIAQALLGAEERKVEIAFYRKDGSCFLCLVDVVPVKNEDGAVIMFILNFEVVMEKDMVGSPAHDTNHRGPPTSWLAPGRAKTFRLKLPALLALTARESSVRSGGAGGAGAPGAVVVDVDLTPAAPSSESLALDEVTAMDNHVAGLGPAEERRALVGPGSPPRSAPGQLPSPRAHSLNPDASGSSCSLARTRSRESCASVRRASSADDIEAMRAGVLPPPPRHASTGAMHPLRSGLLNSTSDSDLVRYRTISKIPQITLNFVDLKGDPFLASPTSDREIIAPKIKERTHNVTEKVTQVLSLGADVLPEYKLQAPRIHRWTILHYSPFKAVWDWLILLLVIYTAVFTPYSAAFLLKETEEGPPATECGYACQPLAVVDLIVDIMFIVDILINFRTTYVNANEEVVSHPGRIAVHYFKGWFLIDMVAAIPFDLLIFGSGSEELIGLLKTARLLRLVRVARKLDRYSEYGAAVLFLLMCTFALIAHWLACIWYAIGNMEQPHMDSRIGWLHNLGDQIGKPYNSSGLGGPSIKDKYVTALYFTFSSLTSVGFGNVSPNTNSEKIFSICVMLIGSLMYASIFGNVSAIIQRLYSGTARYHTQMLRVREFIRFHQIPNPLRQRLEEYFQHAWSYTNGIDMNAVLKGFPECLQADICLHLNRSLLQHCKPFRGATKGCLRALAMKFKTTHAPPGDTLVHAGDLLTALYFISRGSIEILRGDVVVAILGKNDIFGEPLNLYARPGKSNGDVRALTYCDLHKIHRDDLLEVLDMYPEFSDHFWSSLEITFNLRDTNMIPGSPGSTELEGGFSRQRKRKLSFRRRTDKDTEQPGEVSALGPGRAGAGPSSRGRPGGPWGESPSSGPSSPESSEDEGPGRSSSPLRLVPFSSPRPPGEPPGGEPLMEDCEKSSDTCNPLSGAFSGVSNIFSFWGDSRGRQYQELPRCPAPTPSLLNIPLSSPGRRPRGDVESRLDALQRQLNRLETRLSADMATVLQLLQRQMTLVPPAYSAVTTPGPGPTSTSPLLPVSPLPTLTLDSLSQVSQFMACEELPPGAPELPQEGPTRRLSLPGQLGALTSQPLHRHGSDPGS

Row | Structure (SMILES) | hERG current change (%, negative = inhibition) at 1uM
1 | CC(C)c1ccc(NC2CCCN(C(=O)CN3CCOC3=O)C2)cc1 (stereo not drawn) | 5.63%
2 | COc1ccc(C(=O)N2CCc3[nH]nc(-c4ccccc4)c3C2)cc1 | 6.29%
3 | CC(C)c1nnc(NC(=O)C2CCCO2)s1 (stereo not drawn) | 10.8%
4 | Cl.c1ccc(COc2cccc(CNCc3ccccn3)c2)cc1 | -7.26%
5 | COc1ccc2c(c1)N(C)/C(=C1/SC(=S)N(NC(C)=O)C1=O)S2 | 7.8%
6 | Cn1c(SCc2ccccc2C#N)nnc1-c1ccncc1 | 11.5%
7 | Cn1c(=O)cc(SCC(=O)N2CCCC2)c2cc(Cl)ccc21 | 9.41%
8 | COc1cc2ccccc2cc1C(=O)NNC(=O)c1ccccc1O | 9.39%
9 | CCOC(=O)CSc1nnc(Cn2nnc(-c3ccccc3)n2)n1C | 19.2%
10 | Cn1c(=O)[nH]c(=O)c2[nH]c(N(Cc3ccccc3)Cc3ccccc3)nc21 | -1.43%
11 | O=C(COC(=O)C1=NNC(=O)CC1)NCCc1ccccc1 | 17%
12 | CN1CCN(NC(=O)c2cc([N+](=O)[O-])cc([N+](=O)[O-])c2)CC1 | -1.47%
13 | O=S(=O)(/N=C(\Sc1ccccc1)c1ccccc1)c1ccc(Cl)cc1 | 14.1%
14 | COc1cc(C(=O)NCCc2cc3c(OC)ccc(OC)c3[nH]c2=O)cc(OC)c1OC | 3.99%
15 | Cc1ccc(OP(=O)(Nc2cccc(C)c2)Oc2ccc(C)cc2)cc1 | 11.2%
16 | CC/C(Cc1ccccc1)=N\NC(=O)c1cc(C)oc1C | 3.99%
17 | Cc1cc(S(=O)(=O)NC2CCCC2)ccc1-n1cnnn1 | 13.5%
18 | CCC(=O)NC(=S)Nc1ccc2oc(-c3ccc(OC)cc3)nc2c1 | 6.14%
19 | COc1ccc(NC(=O)c2c(C)nn(Cc3ccccc3)c2C)cc1S(=O)(=O)N(C)C | 13.3%

Row | Structure (SMILES) | hERG current change (%, negative = inhibition) at 1uM
20 | CN1CCC(N(C)S(=O)(=O)c2ccc(NC(=O)COc3ccc([N+](=O)[O-])cc3)cc2)CC1 | 12.2%
21 | Cc1ccccc1OCC(=O)Nc1ccc2oc(=O)ccc2c1 | 16.3%
22 | CC(C)C(=O)NNC(=O)c1cc2sccc2s1 | 12.5%
23 | C/C=C/C=C\C(=O)Nc1cccc(C2=NOC3(C2)C[C@@H](C(N)=O)N(C(=O)c2cc([N+](=O)[O-])cc([N+](=O)[O-])c2C)C3)c1 (stereo partly drawn) | 13.5%
24 | CCc1ccccc1NC(=O)C1CCCN(S(=O)(=O)c2ccc3c(c2)CC(C)N3C(C)=O)C1 (stereo not drawn) | 12.9%
25 | O=C(CSc1nc2ccccc2c(=O)n1NC(=O)c1ccccc1)c1ccccc1 | 6.93%
26 | COc1ccc(C(C(=O)NC2CCCCC2)N(CC2CCCO2)C(=O)C2COc3ccccc3O2)cc1OC (stereo not drawn) | -10.3%
27 | O=c1[nH]nc(Cc2ccc3ccccc3n2)c2ccccc12 | 10.5%
28 | CCC(C)NC(=O)CN1C(=O)c2cccc3cccc1c23 (stereo not drawn) | 3.39%
29 | O=C(CN1C(=O)C2C3C=CC(C3)C2C1=O)Nc1ccc2nccnc2c1 (stereo not drawn) | 8.96%
30 | CS(=O)(=O)N(CCc1ccccc1)CC(N)=O | 6.92%
31 | COC(=O)c1c(NS(=O)(=O)c2ccccc2)csc1C | 7.02%
32 | COc1ccc(-c2nc(SC)n(C(=O)c3ccco3)n2)cc1 | 16.2%
33 | Br.COc1ccc(-c2csc(NNC3=NCCCCC3)n2)cc1 | 14.7%
34 | CCOC(=O)CNC(=O)CSc1ccc2nnc(-c3ccc(F)cc3)n2n1 | 1.65%
35 | COc1cc(OC)cc(C(=O)NCCN2CCOCC2)c1.O=C(O)C(=O)O | 8.34%
36 | CCn1c(CNC(=O)c2ccccc2Cl)cc2ccccc21 | 18.6%
37 | O=C(O)CC/C(=N\NC(=O)c1ccncc1)c1ccccc1 | 17.7%
38 | Cn1c(=O)[nH]c(=O)c2c1nc1n2CCCN1CCc1ccccc1 | 6.26%

Row | Structure (SMILES) | hERG current change (%, negative = inhibition) at 1uM
39 | COc1cc2[nH]c(C(=O)NCc3ccccc3)cc2c(OC)c1OC.Cl | 15.2%
40 | Cc1c(C(=O)O)sc(=S)n1-c1ccc(Cl)cc1 | 2.99%
41 | Cc1ccccc1C(=O)c1cccn1CC(=O)O | 17.6%
42 | FC(F)(F)c1ccc(CNCCc2ccc3c(c2)OCO3)cc1.O=C(O)C(=O)O | -4.97%
43 | Cc1ccc(CN(CC(=O)NCc2ccc3c(c2)OCO3)C(=O)c2csnn2)cc1 | -1.65%
44 | CN(C)c1nc(OCCNC(=O)COc2ccc(Cl)cc2Cl)nc(N2CCCCC2)n1 | 13.2%
45 | O=C(NCC(c1cccs1)N1CCOCC1)c1cc(-c2ccc(F)cc2)nc2ccccc12 (stereo not drawn) | -27.2%
46 | CCC(CC)c1nnc(NC(=O)CC(C)c2ccccc2)s1 (stereo not drawn) | 8.73%
47 | O=C(COc1ccc(Br)cc1)Nc1ccc(NC(=O)c2ccccc2)cc1 | 5.36%
48 | NC(=O)c1ccccc1NS(=O)(=O)Cc1ccc(Cl)cc1 | 0.398%
49 | Cc1ccc(NC(=S)Nn2cnnc2)c(C)c1 | 10.8%
50 | O=C(N/N=C/c1ccc(Br)cc1)c1cc[n+]([O-])cc1 | 3.7%
51 | C=CCn1c(SCC(=O)Nc2cc(NC(C)=O)ccc2OC)nnc1-c1cccnc1 | 3.44%
52 | O=C(Cn1cnc([N+](=O)[O-])n1)N/N=C/c1cccc2ccccc12 | 7.84%
53 | COc1ccc(NC(=O)N2CCCCCC2)cc1 | 18.6%
54 | COc1ccc2cc(C3CC(c4ccco4)=NN3C(=O)CCC(=O)O)c(Cl)nc2c1 (stereo not drawn) | 6.09%
55 | CC(C)OC(=O)CSc1nc2c(c(C3CC=CCC3)c1C#N)CCC2 (stereo not drawn) | 11.7%
56 | CCCN1C(=O)C2(OCCO2)c2cc(Cl)ccc21 | 16.5%
57 | O=C(COC(=O)/C=C/c1cccc(Br)c1)NC1CC1 | 6.09%

Source: PMC4336329 (PLoS ONE, 2015)
